Reference: PubChem BioAssay (NCATS)
“And” between values parts separate entries of the source, which are not always exact repeats. Identical values can stand only once. Inconclusive results, whose numbers are uncertain, are shown with a selection of clear calls. Potencies of inconclusive entries are doubtful fits and often do not repeat. The source made the active and inactive calls. Calls come from the whole dose curve; as a rule, active = well fitted inhibition curve with a large enough effect; inconclusive = small, poorly fitted or top-dose-only effect, or another doubt; inactive = no such curve, though single readings can be large or run the other way.

What follows are compounds tested against DNA polymerase eta (Homo sapiens) (UniProt Q9Y253) (assay: qHTS for Inhibitors of Polymerase Eta: Confirmatory Assay for Cherry-picked Compounds (AID 720502)). Conditions: Pol eta primer extension, TAMRA/BHQ fluorescence, 10 min.
Summary of the method: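 Readout: TAMRA dequenching, ex 525/em 598 nm, read at 0 and 10 min. Enzyme: 10 nM human Pol eta, preincubated with compound 15 min RT. Substrate: 50 nM final annealed primer/reporter/template duplex.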
Potency is the fitted concentration of half-maximal effect; tags give direction and shape of the fitted curve.

Chain of UniProt Q9Y253 (Q9Y253 whole entry, looked up): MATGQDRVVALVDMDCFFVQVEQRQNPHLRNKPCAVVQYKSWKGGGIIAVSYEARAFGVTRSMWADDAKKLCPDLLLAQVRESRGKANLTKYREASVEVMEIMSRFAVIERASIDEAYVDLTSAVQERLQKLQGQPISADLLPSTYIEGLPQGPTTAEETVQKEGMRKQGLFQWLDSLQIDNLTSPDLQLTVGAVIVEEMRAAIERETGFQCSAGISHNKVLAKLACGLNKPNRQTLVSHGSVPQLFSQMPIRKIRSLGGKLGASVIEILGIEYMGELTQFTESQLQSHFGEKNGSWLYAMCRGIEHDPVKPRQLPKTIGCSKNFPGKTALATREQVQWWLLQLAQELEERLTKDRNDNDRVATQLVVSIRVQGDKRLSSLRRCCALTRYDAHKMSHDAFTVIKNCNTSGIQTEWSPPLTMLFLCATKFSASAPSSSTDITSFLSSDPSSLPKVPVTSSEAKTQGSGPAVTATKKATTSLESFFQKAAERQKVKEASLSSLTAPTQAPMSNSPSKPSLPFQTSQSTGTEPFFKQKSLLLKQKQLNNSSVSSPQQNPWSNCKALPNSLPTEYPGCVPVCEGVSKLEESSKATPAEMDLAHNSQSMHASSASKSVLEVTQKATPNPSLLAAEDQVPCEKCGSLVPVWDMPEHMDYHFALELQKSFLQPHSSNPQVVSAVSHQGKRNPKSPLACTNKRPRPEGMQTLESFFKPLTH

Row | Compound | Potency
1 | Oc1c(Br)cc(Br)c(/C=N/n2c(-c3ccccc3)n[nH]c2=S)c1Br | inconclusive: 95.3 µM [inhibitor, single point]
2 | Cc1cc(C(=O)C(=O)Nc2nnc(C(C)C)s2)c(C)n1-c1ccccc1 | inconclusive: 75.7 µM [inhibitor, single point]
3 | N#Cc1c(NC(=O)/C=C/C(=O)O)sc2c1CCN(Cc1ccccc1)C2 | active: 47.8 µM
4 | COc1ccc(-c2ccc(CN3C(C)C(=O)N(Cc4cn(CCC5OCCO5)nn4)CCS3(=O)=O)cc2)cc1 (centres undefined) | inconclusive: 84.9 µM [inhibitor, single point]
5 | CC(=O)OCC1=C(C(=O)O)N2C(=O)C(NC(=O)CC(C)c3ccccc3)C2SC1 (centres undefined) | inconclusive: 84.9 µM [inhibitor, single point]
6 | Cc1c(Cl)cnc(NC(=O)COC(=O)[C@@H](NC(=O)c2ccco2)C(C)C)c1Cl | inconclusive: 75.7 µM [inhibitor, single point]
7 | O=C(O)c1cccc(N/N=C/C2=C(Cl)c3cc(Cl)ccc3SC2)c1 | inconclusive: 84.9 µM [inhibitor, single point]
8 | Cc1cc2oc(C(=O)Nc3sc4c(c3C(=O)NCc3ccco3)CCC4)cc(=O)c2cc1C | inconclusive: 95.3 µM [inhibitor, single point]
9 | O=C1CS/C(=N\N=C\c2ccco2)N1c1ccccc1 | inconclusive: 84.9 µM [inhibitor, single point]
10 | O=C(/C=C/c1ccco1)N1CCN(S(=O)(=O)c2ccccc2)CC1 | inconclusive: 75.7 µM [inhibitor, single point]
11 | COc1ccc(OCCn2nnc3sc4c(c3c2=O)CCCC4)cc1 | inconclusive: 84.9 µM [inhibitor, single point]
12 | CC(C)Cn1c(N)c(C(=O)COC(=O)C2Cc3ccccc3CN2S(C)(=O)=O)c(=O)n(C)c1=O (centres undefined) | inconclusive: 75.7 µM [inhibitor, single point]
13 | CN(c1ccc(Cl)cc1)S(=O)(=O)c1nnc(NC(=O)c2ccco2)s1 | inconclusive: 95.3 µM [inhibitor, single point]
14 | O=C(Nc1nnc(S(=O)(=O)N2CCCc3ccccc32)s1)c1ccccc1Br | inconclusive: 95.3 µM [inhibitor, single point]
15 | Cc1cnc(C(=O)NCC(=O)Nc2ccccc2Br)cn1 | inconclusive: 75.7 µM [inhibitor, single point]
16 | Cc1oc2c(cc(NS(=O)(=O)c3ccc(C(C)C)cc3)c3ccccc32)c1C(=O)O | inconclusive: 95.3 µM [inhibitor, single point] and inconclusive: 84.9 µM [inhibitor, single point]
17 | COc1cccc(OCCOc2ccc(/C=C3/SC(=S)NC3=O)cc2)c1 | active: 84.9 µM
18 | O=C(c1ccc2c(c1)N(Cc1cccc(F)c1)C(=O)c1ccccc1S2)N1CCCC1 | inconclusive: 84.9 µM [inhibitor, single point]
19 | Cc1cc(C)cc(OCc2cc(=O)n3c(-c4ccccc4)csc3n2)c1 | inconclusive: 95.3 µM [inhibitor, single point]
